# Experimental data as given in paper PMC4336329 (PLoS ONE, 2015).
# Hit rate of the full screen: of about 310,000 compounds, about 2,200 (0.71%) showed an effect of 50% or more. Effects have a minus sign here. This is one part of the list.
# Target: human ether-à-go-go-related gene (hERG) potassium channel (human, UniProt Q12809)
# Assay: primary screen, population patch clamp on CHO cells stably expressing hERG
# human ether-à-go-go-related gene (hERG) potassium channel, sequence (Q12809 whole entry, looked up): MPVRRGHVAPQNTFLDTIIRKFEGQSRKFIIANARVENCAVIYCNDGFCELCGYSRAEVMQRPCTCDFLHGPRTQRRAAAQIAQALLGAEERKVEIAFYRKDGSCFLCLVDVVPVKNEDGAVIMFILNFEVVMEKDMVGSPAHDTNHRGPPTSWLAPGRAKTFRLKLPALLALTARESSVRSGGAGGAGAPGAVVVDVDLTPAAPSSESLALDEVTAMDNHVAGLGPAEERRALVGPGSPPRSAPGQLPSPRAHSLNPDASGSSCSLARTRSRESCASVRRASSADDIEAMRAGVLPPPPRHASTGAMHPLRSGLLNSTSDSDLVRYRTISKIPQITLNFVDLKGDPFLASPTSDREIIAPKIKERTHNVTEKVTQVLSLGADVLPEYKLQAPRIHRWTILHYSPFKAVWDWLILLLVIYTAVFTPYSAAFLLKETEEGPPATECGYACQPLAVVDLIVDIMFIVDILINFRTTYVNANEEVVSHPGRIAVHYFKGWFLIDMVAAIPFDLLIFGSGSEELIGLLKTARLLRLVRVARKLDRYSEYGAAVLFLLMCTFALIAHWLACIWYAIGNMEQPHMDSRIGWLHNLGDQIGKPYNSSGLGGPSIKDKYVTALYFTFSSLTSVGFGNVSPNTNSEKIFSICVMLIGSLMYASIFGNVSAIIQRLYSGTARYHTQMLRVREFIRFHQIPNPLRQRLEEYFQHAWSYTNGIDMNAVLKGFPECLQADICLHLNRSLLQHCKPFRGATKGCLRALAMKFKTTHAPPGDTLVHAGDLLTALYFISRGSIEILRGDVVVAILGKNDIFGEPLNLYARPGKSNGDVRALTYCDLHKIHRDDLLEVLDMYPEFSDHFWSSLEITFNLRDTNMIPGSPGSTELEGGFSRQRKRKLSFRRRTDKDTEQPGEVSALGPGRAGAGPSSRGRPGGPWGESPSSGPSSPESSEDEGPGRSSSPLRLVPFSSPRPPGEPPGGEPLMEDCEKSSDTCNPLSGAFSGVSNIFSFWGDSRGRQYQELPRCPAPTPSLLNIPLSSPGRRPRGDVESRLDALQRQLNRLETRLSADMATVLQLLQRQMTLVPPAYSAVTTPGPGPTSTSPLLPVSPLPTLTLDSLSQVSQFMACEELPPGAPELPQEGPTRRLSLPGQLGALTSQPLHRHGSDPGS
row,Compound,"hERG current change (%, negative = inhibition) at 1uM"
1,O=C(Oc1ccccc1Cl)C1CCN(C(=O)c2ccc(F)cc2)CC1,3.19%
2,O=C(O)c1ccccc1SCC(=O)N1CCc2ccccc21,3.04%
3,Cc1cccc(NC(=O)CN2C(=O)N/C(=C/c3ccc(C)o3)C2=O)c1,10.4%
4,O=C(NCCN1CCCC1)C1CC(=O)N(C2CCCCC2)C1 (centres unmarked),13.8%
5,Fc1ccc(Nc2nc(-c3ccncc3)nc3ccccc23)cc1F,5.14%
6,Cc1c([N+](=O)[O-])cc(C(=O)N2CCOCC2)cc1[N+](=O)[O-],7.34%
7,Cc1cc(Nc2cccc(C)c2C)n2nc(C)nc2n1,-3.1%
8,CCOc1ccc(N2CC(C(=O)Nc3ncccc3C)CC2=O)cc1 (centres unmarked),4.83%
9,CC(=O)N(CCS(=O)(=O)c1ccc(Cl)cc1)Cc1cccs1,6.56%
10,Cc1ccc(S(=O)(=O)N(C)C2(C)CCS(=O)(=O)C2)cc1 (centres unmarked),-2%
11,O=[N+]([O-])CC1(n2nc3ccccc3n2)CCCCC1,7.5%
12,C=CCNc1nc(C(=O)OCC(=O)c2ccc(F)cc2)cs1,1.73%
13,CCOC(=O)C1CCCN(c2c(NCCCN(CC)c3cccc(C)c3)c(=O)c2=O)C1 (centres unmarked),5.21%
14,c1ccc2c(c1)nc(N1CCOCC1)c1nncn12,-6.2%
15,CC(C)CN1CCC(C(=O)NCC2CCCO2)CC1.O=C(O)C(=O)O (centres unmarked),3.58%
16,CC(NC(=O)CCCCCCN1C(=O)c2ccccc2C1=O)c1ccc2c(c1)CCCC2 (centres unmarked),10.7%
17,Cc1ccc(NS(=O)(=O)c2ccc(C)c(C(=O)N3CCOCC3)c2)cc1,6.95%
18,CC(=O)OCc1ccccc1Sc1ccccc1C(=O)NCc1ccccc1,8.25%
19,CSCCC(Nc1ccc(S(=O)(=O)N2CCOCC2)cc1[N+](=O)[O-])C(=O)OCC(=O)N(C(C)C)C(C)C (centres unmarked),-0.777%
20,COc1ccc(Cc2nc(-c3ccncc3)no2)cc1,2.33%

row,Compound,"hERG current change (%, negative = inhibition) at 1uM"
1,CCOP(=O)(OCC)c1nc(-c2cccc3ccccc23)oc1N1CCOCC1,9.37%
2,N#Cc1cn(-c2ccccc2)nc1-c1ccc2c(c1)OCCO2,13.3%
3,O=[N+]([O-])c1cc(S(=O)(=O)N2CCCC2)ccc1SCCO,2.97%
4,Cc1cc(-n2c(C)cc(C(=O)CSc3nnnn3-c3ccc(Cl)cc3)c2C)no1,9.82%
5,O=C(CSc1nc2ccccc2s1)NC1CCCC1,5.36%
6,CSC1=NSC2=NC(=O)/C(=C\c3ccc(OC(=O)c4ccco4)cc3)C(=N)N12,5.28%
7,COC(=O)CSc1nnc(CNC(=O)c2ccc(OC)cc2OC)n1C,-2.35%
8,Cc1ccc(C)c(CSc2nnc(-c3cccnc3)n2N)c1,8.55%
9,COC(=O)C1=C(C)NC(=O)CC1c1ccccc1F (centres unmarked),7.53%
10,FC(F)(F)c1cccc(NC(=S)NCc2ccc(Cl)cc2)c1,10.9%
11,CNC(=O)CN1C(=O)NC(Cc2c[nH]c3ccccc23)C1=O (centres unmarked),-7.61%
12,Cn1c(O)c(C=NC2CCN(Cc3ccccc3)CC2)c(=O)[nH]c1=O,4.52%
13,CCN1CCc2c(OCc3ccc(C(=O)OC)o3)cccc2C1=O,7.05%
14,COc1ccc(-c2cnn(-c3ccccc3)c2N)cc1OC,7.37%
15,Cc1ccc(S(=O)(=O)Nc2ncnc3ccccc23)cc1,10.6%
16,COCCCNC(=O)C1CCCN(S(=O)(=O)c2ccc(C)cc2)C1 (centres unmarked),-0.61%
17,CC(C)(C)c1nc(SCC(=O)NCc2cccs2)c2ccccc2n1,4.7%
18,Cc1ccc(C(=O)NC(C(=O)OCc2cn3cc(Cl)ccc3n2)C(C)C)cc1 (centres unmarked),6.5%
19,CN1C(=O)/C(=C\c2ccc(Br)s2)C(=O)NC1=S,16.1%
20,Br.O=C(Cn1c(NCCCO)nc2ccccc21)c1cccs1,-4.05%

row,Compound,"hERG current change (%, negative = inhibition) at 1uM"
1,O=C(CN1C(=O)C(=O)c2ccccc21)NCCc1ccccc1,9.49%
2,CC(=O)c1cccc(S(=O)(=O)N(C)C2CCN(C)CC2)c1.Cl,-0.127%
3,CCCOc1ccccc1/C=C1/C(=O)ON=C1C,11.8%
4,CC1=C(C(=O)OC(C)C)C(c2ccc(C)o2)NC(=O)N1 (centres unmarked),-5.32%
5,CC(C)Cc1nnc(NC(=O)c2ccncc2)s1,-6.33%
6,CCOc1ccc(NC(=O)N2CCC(c3ccc(C)cc3)C2)cc1 (centres unmarked),12.8%
7,CC(=O)N1CN2CN(C(C)=O)CC(C(=O)c3ccc([N+](=O)[O-])cc3)(C2)C1,0.729%
8,O=C(c1cc(COc2ccc(F)cc2Cl)on1)N1CCN(C2CCCC2)CC1,-19.3%
9,COc1c(Br)cc(Br)cc1C(=O)O,12.3%
10,O=[N+]([O-])c1ccc(C2CCCC/C2=N/OCc2ccccc2F)c([N+](=O)[O-])c1 (centres unmarked),10.6%
11,S=C(NCCc1ccccc1)NC1CCC(NC(=S)NCCc2ccccc2)CC1 (centres unmarked),12.5%
12,CCOc1cc(NC(=S)NCCCN(C)C)c(OCC)cc1NC(=O)C1CC1,7.44%
13,Cc1ccc(/C=N/c2sc3c(c2C#N)CCC3)s1,-3.51%
14,O=c1[nH]cc(-c2ccccc2)c(=O)[nH]1,14.8%
15,C=C(C)Cn1c(N2CC(C)CC(C)C2)nc2c1c(=O)[nH]c(=O)n2C (centres unmarked),8.85%
16,CC1CCN(C(=O)/C=C/c2ccc(C(C)(C)C)cc2)CC1,-2.14%
17,COc1ccc(C(C)=O)cc1COC(=O)c1ccc(C)c(S(=O)(=O)N2CCOCC2)c1,1.21%
18,O=C(N/N=C/C(Cl)=C/c1ccccc1)c1cnccn1,2.75%
19,COc1ccc(Cn2cccc(NC(=O)Nc3ccc(C#N)cc3)c2=O)cc1,10.5%
